# Experimental data reported in the supplement of paper PMC8728848.
# Some of the results follow.
# What was measured:
# Assay in all cases: glycan array binding signal (z-score within array); higher = stronger binding
# Settings in all cases: glycan notation: IUPAC condensed, linker removed
# [1] = target: Neu5Ac(a2-3)Gal(b1-3)GlcNAc(b1-3)Gal(b1-4)GlcNAc
# Procedure, shortened: (§1)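 Glycan array binding is given as a within-array Z-score, which can be read as non-binding when negative. The arrays, 3228 of them, came from the Consortium for Functional Glycomics database and were retained only where the protein sequence was available. Z-scores were averaged across arrays of the same protein sequence at different concentrations or buffers and across linkers.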
# [2] = target: Neu5Ac(a2-3)Gal(b1-3)GlcNAc(b1-3)GalNAc
# Procedure, shortened: as §1
# [3] = target: Neu5Ac(a2-3)Gal(b1-3)GlcNAc(b1-6)GalNAc
# Procedure, shortened: as §1
# [4] = target: Neu5Ac(a2-3)Gal(b1-3)GlcNAc6S
# Procedure, shortened: as §1
# [5] = target: Neu5Ac(a2-3)Gal(b1-3)[Fuc(a1-4)]GlcNAc
# Procedure, shortened: as §1
# [6] = target: Neu5Ac(a2-3)Gal(b1-3)[Fuc(a1-4)]GlcNAc(b1-3)Gal(b1-3)[Fuc(a1-4)]GlcNAc
# Procedure, shortened: as §1
# [7] = target: Neu5Ac(a2-3)Gal(b1-3)[Fuc(a1-4)]GlcNAc(b1-3)Gal(b1-4)[Fuc(a1-3)]GlcNAc
# Procedure, shortened: as §1
# [8] = target: Neu5Ac(a2-3)Gal(b1-3)[GlcNAc(b1-6)]GalNAc
# Procedure, shortened: as §1
# [9] = target: Neu5Ac(a2-3)Gal(b1-3)[Neu5Ac(a2-3)Gal(b1-4)]GlcNAc
# Procedure, shortened: as §1
# [10] = target: Neu5Ac(a2-3)Gal(b1-3)[Neu5Ac(a2-6)]GalNAc
# Procedure, shortened: as §1
# [11] = target: Neu5Ac(a2-3)Gal(b1-3)[Neu5Ac(a2-6)]GlcNAc(b1-3)[Fuc(a1-3)[Gal(b1-4)]GlcNAc(b1-6)]Gal(b1-4)Glc
# Procedure, shortened: as §1
# [12] = target: Neu5Ac(a2-3)Gal(b1-3)]Neu5Ac(a2-3)Gal(b1-4)]GlcNAc
# Procedure, shortened: as §1
# Neu5Ac(a2-3)Gal(b1-4)Glc = target: Neu5Ac(a2-3)Gal(b1-4)Glc
# Procedure, shortened: as §1
# [13] = target: Neu5Ac(a2-3)Gal(b1-4)GlcNAc
# Procedure, shortened: as §1
# [14] = target: Neu5Ac(a2-3)Gal(b1-4)GlcNAc(b1-2)Man
# Procedure, shortened: as §1
# [15] = target: Neu5Ac(a2-3)Gal(b1-4)GlcNAc(b1-2)Man(a1-3)[GlcNAc(b1-2)Man(b1-4)GlcNAc(b1-2)Man(a1-6)]Man(b1-4)GlcNAc(b1-4)GlcNAc
# Procedure, shortened: as §1
# [16] = target: Neu5Ac(a2-3)Gal(b1-4)GlcNAc(b1-2)Man(a1-3)[GlcNAc(b1-4)][Neu5Ac(a2-3)Gal(b1-4)GlcNAc(b1-2)Man(a1-6)]Man(b1-4)GlcNAc(b1-4)GlcNAc
# Procedure, shortened: as §1
# [17] = target: Neu5Ac(a2-3)Gal(b1-4)GlcNAc(b1-2)Man(a1-3)[Neu5Ac(a2-3)Gal(b1-4)GlcNAc(b1-2)Man(a1-6)]Man(b1-4)GlcNAc(b1-4)GlcNAc
# Procedure, shortened: as §1
# [18] = target: Neu5Ac(a2-3)Gal(b1-4)GlcNAc(b1-2)Man(a1-3)[Neu5Ac(a2-3)Gal(b1-4)GlcNAc(b1-2)Man(a1-6)]Man(b1-4)GlcNAc(b1-4)[Fuc(a1-6)]GlcNAc
# Procedure, shortened: as §1
# [19] = target: Neu5Ac(a2-3)Gal(b1-4)GlcNAc(b1-2)Man(a1-3)[Neu5Ac(a2-6)Gal(b1-4)GlcNAc(b1-2)Man(a1-6)]Man(b1-4)GlcNAc(b1-4)GlcNAc
# Procedure, shortened: as §1
# [20] = target: Neu5Ac(a2-3)Gal(b1-4)GlcNAc(b1-2)[Neu5Ac(a2-3)Gal(b1-4)GlcNAc(b1-4)]Man(a1-3)[GlcNAc(b1-4)][Neu5Ac(a2-3)Gal(b1-4)GlcNAc(b1-2)[Neu5Ac(a2-3)Gal(b1-4)GlcNAc(b1-6)]Man(a1-6)]Man(b1-4)GlcNAc(b1-4)GlcNAc
# Procedure, shortened: as §1
# [21] = target: Neu5Ac(a2-3)Gal(b1-4)GlcNAc(b1-2)[Neu5Ac(a2-3)Gal(b1-4)GlcNAc(b1-4)]Man(a1-3)[GlcNAc(b1-4)][Neu5Ac(a2-3)Gal(b1-4)GlcNAc(b1-4)Man(a1-6)]Man(b1-4)GlcNAc(b1-4)GlcNAc
# Procedure, shortened: as §1
# [22] = target: Neu5Ac(a2-3)Gal(b1-4)GlcNAc(b1-2)[Neu5Ac(a2-3)Gal(b1-4)GlcNAc(b1-6)]Man(a1-6)[Neu5Ac(a2-3)Gal(b1-4)GlcNAc(b1-2)Man(a1-3)]Man(b1-4)GlcNAc(b1-4)GlcNAc
# Procedure, shortened: as §1
# [23] = target: Neu5Ac(a2-3)Gal(b1-4)GlcNAc(b1-2)[Neu5Ac(a2-3)Gal(b1-4)GlcNAc(b1-6)]Man(a1-6)[Neu5Ac(a2-3)Gal(b1-4)GlcNAc(b1-2)Man(a1-3)][GlcNAc(b1-4)]Man(b1-4)GlcNAc(b1-4)GlcNAc
# Procedure, shortened: as §1
# [24] = target: Neu5Ac(a2-3)Gal(b1-4)GlcNAc(b1-3)Gal
# Procedure, shortened: as §1
# [25] = target: Neu5Ac(a2-3)Gal(b1-4)GlcNAc(b1-3)Gal(b1-3)GlcNAc
# Procedure, shortened: as §1
# [26] = target: Neu5Ac(a2-3)Gal(b1-4)GlcNAc(b1-3)Gal(b1-4)GlcNAc
# Procedure, shortened: as §1
# [27] = target: Neu5Ac(a2-3)Gal(b1-4)GlcNAc(b1-3)Gal(b1-4)GlcNAc(b1-2)Man(a1-3)[Neu5Ac(a2-3)Gal(b1-4)GlcNAc(b1-3)Gal(b1-4)GlcNAc(b1-2)Man(a1-6)]Man(b1-4)GlcNAc(b1-4)GlcNAc
# Procedure, shortened: as §1
# [28] = target: Neu5Ac(a2-3)Gal(b1-4)GlcNAc(b1-3)Gal(b1-4)GlcNAc(b1-3)Gal(b1-4)GlcNAc
# Procedure, shortened: as §1
# [29] = target: Neu5Ac(a2-3)Gal(b1-4)GlcNAc(b1-3)Gal(b1-4)GlcNAc(b1-3)Gal(b1-4)GlcNAc(b1-2)Man(a1-3)[Neu5Ac(a2-3)Gal(b1-4)GlcNAc(b1-3)Gal(b1-4)GlcNAc(b1-3)Gal(b1-4)GlcNAc(b1-2)Man(a1-6)]GalNAc
# Procedure, shortened: as §1
# [30] = target: Neu5Ac(a2-3)Gal(b1-4)GlcNAc(b1-3)Gal(b1-4)GlcNAc(b1-3)GalNAc
# Procedure, shortened: as §1
# [31] = target: Neu5Ac(a2-3)Gal(b1-4)GlcNAc(b1-3)Gal(b1-4)GlcNAc(b1-3)[Neu5Ac(a2-3)Gal(b1-4)GlcNAc(b1-3)Gal(b1-4)GlcNAc(b1-6)]GalNAc
# Procedure, shortened: as §1
# [32] = target: Neu5Ac(a2-3)Gal(b1-4)GlcNAc(b1-3)Gal(b1-4)GlcNAc(b1-6)[Gal(b1-3)]GalNAc
# Procedure, shortened: as §1
# [33] = target: Neu5Ac(a2-3)Gal(b1-4)GlcNAc(b1-3)Gal(b1-4)[Fuc(a1-3)]GlcNAc
# Procedure, shortened: as §1
# [34] = target: Neu5Ac(a2-3)Gal(b1-4)GlcNAc(b1-3)GalNAc
# Procedure, shortened: as §1
# [35] = target: Neu5Ac(a2-3)Gal(b1-4)GlcNAc(b1-3)[Neu5Ac(a2-3)Gal(b1-4)GlcNAc(b1-6)]GalNAc
# Procedure, shortened: as §1
# [36] = target: Neu5Ac(a2-3)Gal(b1-4)GlcNAc(b1-6)GalNAc
# Procedure, shortened: as §1
# [37] = target: Neu5Ac(a2-3)Gal(b1-4)GlcNAc(b1-6)[Gal(b1-3)]GalNAc
# Procedure, shortened: as §1
# [38] = target: Neu5Ac(a2-3)Gal(b1-4)GlcNAc(b1-6)[Neu5Ac(a2-3)Gal(b1-3)]GalNAc
# Procedure, shortened: as §1
# [39] = target: Neu5Ac(a2-3)Gal(b1-4)GlcNAc6S
# Procedure, shortened: as §1
# [40] = target: Neu5Ac(a2-3)Gal(b1-4)[Fuc(a1-3)]GlcNAc
# Procedure, shortened: as §1
# [41] = target: Neu5Ac(a2-3)Gal(b1-4)[Fuc(a1-3)]GlcNAc(b1-2)Man
# Procedure, shortened: as §1
# [42] = target: Neu5Ac(a2-3)Gal(b1-4)[Fuc(a1-3)]GlcNAc(b1-3)Gal
# Procedure, shortened: as §1
binder,measurement,setting,value
Gal 7 (Homo sapiens) (protein) MSNVPHKSSLPEGIRPGTVLRIRGLVPPNASRFHVNLLCGEEGGSDAALHFNPRLDTSEVVFNSKEGGSWGREERGPGVPFGRGQPFEVLIIASDDGFKAVVGDAQYHHFRHRLPLARVRLVEVGGDVQLDSVRIF,glycan array binding signal (z-score),[1],0.604
same,glycan array binding signal (z-score),[2],-0.297
same,glycan array binding signal (z-score),[3],-0.117
same,glycan array binding signal (z-score),[4],-0.003
same,glycan array binding signal (z-score),[5],-0.332
same,glycan array binding signal (z-score),[6],0.125
same,glycan array binding signal (z-score),[7],-0.197
same,glycan array binding signal (z-score),[8],-0.282
same,glycan array binding signal (z-score),[9],-0.264
same,glycan array binding signal (z-score),[10],0.007
same,glycan array binding signal (z-score),[11],-0.209
same,glycan array binding signal (z-score),[12],-0.286
same,glycan array binding signal (z-score),Neu5Ac(a2-3)Gal(b1-4)Glc,-0.201
same,glycan array binding signal (z-score),[13],-0.323
same,glycan array binding signal (z-score),[14],0.46
same,glycan array binding signal (z-score),[15],-0.355
same,glycan array binding signal (z-score),[16],-0.276
same,glycan array binding signal (z-score),[17],-0.267
same,glycan array binding signal (z-score),[18],0.214
same,glycan array binding signal (z-score),[19],-0.302
same,glycan array binding signal (z-score),[20],-0.271
same,glycan array binding signal (z-score),[21],-0.258
same,glycan array binding signal (z-score),[22],0.256
same,glycan array binding signal (z-score),[23],-0.245
same,glycan array binding signal (z-score),[24],-0.321
same,glycan array binding signal (z-score),[25],-0.232
same,glycan array binding signal (z-score),[26],0.054
same,glycan array binding signal (z-score),[27],-0.153
same,glycan array binding signal (z-score),[28],0.817
same,glycan array binding signal (z-score),[29],2.74
same,glycan array binding signal (z-score),[30],-0.259
same,glycan array binding signal (z-score),[31],0.006
same,glycan array binding signal (z-score),[32],-0.262
same,glycan array binding signal (z-score),[33],-0.309
same,glycan array binding signal (z-score),[34],-0.246
same,glycan array binding signal (z-score),[35],-0.216
same,glycan array binding signal (z-score),[36],-0.17
same,glycan array binding signal (z-score),[37],-0.217
same,glycan array binding signal (z-score),[38],-0.273
same,glycan array binding signal (z-score),[39],0.277
same,glycan array binding signal (z-score),[40],-0.305
same,glycan array binding signal (z-score),[41],-0.293
same,glycan array binding signal (z-score),[42],-0.331
